Results taken from PubChem BioAssay AID651820 (National Center for Advancing Translational Sciences (NCATS), 2012).
Screen size: about 340,000 compounds; about 12,000 (3.5%) were called active. This list was built around the results that the source calls inconclusive (neither active nor inactive); the mix of calls is not that of the screen. Calls come from the whole dose curve; as a rule, active = well fitted inhibition curve with a large enough effect; inconclusive = small, poorly fitted or top-dose-only effect, or another doubt; inactive = no such curve, though single readings can be large or run the other way. Potencies of inconclusive entries are left out as doubtful fits.

Assay: qHTS Assay for Inhibitors of Hepatitis C Virus (HCV)
Conditions: Huh7.5.1 HCVcc-Cre (HCVcc is cell-culture hepatitis C virus) infection, luciferase reporter, 44 h; activity change, negative = inhibition: at 41.8 µM (top of the series) unless noted
Method in brief: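 Cells seeded at 1,000/well and cultured 4 h, then compounds added followed by HCVcc-Cre virus (~0.5 moi). After 44 h further culture, luciferase substrate was added, plates held 15 min at room temperature, and luminescence read for 15 sec.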
% is set by controls: 0 for no effect and ±100 for the full control effect; potency is the fitted concentration of half-maximal effect; tags give direction and shape of the fitted curve.

| Structure (SMILES) | Potency | activity change, negative = inhibition |
| --- | --- | --- |
| O=S(=O)(c1ccccc1)N1N=C(c2ccccc2)CC1c1ccccc1F (stereo not drawn) | inconclusive [inhibitor, single point] | – |
| O=C(O)C1CCN(S(=O)(=O)c2ccc(N3CCOCC3)c([N+](=O)[O-])c2)CC1 | inactive | – |
| O=C(Cc1ccc(S(=O)(=O)N2CCOCC2)s1)Nc1nc2c(s1)CCCC2 | inconclusive [inhibitor, single point] | – |
| CCN(c1ccccc1)S(=O)(=O)c1cc(C(=O)Nc2ccccc2Cl)ccc1F | inconclusive [inhibitor, single point] | – |
| CCCC(=O)N1CCN(c2nnc(-c3ccc(C)cc3)c3ccccc23)CC1 | active: 12.6 µM | – |
| CCc1ccc(N(C(=O)c2snc(C(N)=O)c2N)C(C(=O)NC2CCCC2)c2ccco2)cc1 (stereo not drawn) | inconclusive [inhibitor, single point] | – |
| CN(C(=O)COC(=O)CN1C(=O)c2ccccc2C1=O)c1c(N)n(Cc2ccccc2)c(=O)[nH]c1=O | inconclusive [inhibitor, partial curve, poor fit] | – |
| Cc1oc(-c2ccc(F)cc2F)nc1CN1C[C@@H]2C[C@@H](C1)c1cccc(=O)n1C2 | inconclusive [inhibitor, single point] | – |
| c1cncc(CSc2ccc(-c3cccs3)nn2)c1 | inconclusive [inhibitor, single point] | – |
| CCOc1ccc(C(CC(=O)O)NC(=O)Cc2ccc(Cl)cc2)cc1 (stereo not drawn) | inactive | – |
| COc1ccc(C(=O)Nc2ccc(S(=O)(=O)NCc3ccco3)cc2)cc1OC | inconclusive [inhibitor, partial curve] | – |
| COC(=O)C1=C(O)/C(=C\c2cc(C)n(-c3ccccc3C)c2C)N=C1C | inconclusive [inhibitor, single point] | – |
| c1ccc(CCNc2ncnc3sccc23)nc1 | inconclusive [inhibitor, single point] | – |
| CCCCOC(=O)Cn1c(=O)n(CC(=O)OCCCC)c2cc(C)ccc21 | inactive | – |
| CCS(=O)(=O)N1CCCC(C(=O)NCCN2CCC(Cc3ccccc3)CC2)C1 (stereo not drawn) | inconclusive [inhibitor, partial curve] | – |
| Cc1ccc(OCCSc2cc(C)nc(N)n2)cc1 | inactive | – |
| Cc1cc(C)c(CN2CCN(CCCn3cnc(C(=O)Nc4ccc(C)c(C)c4)n3)CC2)c(C)c1 | inconclusive [inhibitor, partial curve] | – |
| Cc1ccc(NCc2cccnc2)c(Br)c1 | inconclusive [inhibitor, partial curve, poor fit] | – |
| CCCCNC(=S)Nc1ccc2nc(N3CCN(CC)CC3)cc(C)c2c1 | active: 12.6 µM | – |
| N#CC1(NC(=O)CSc2nnc(-c3ccccc3F)o2)CCCCC1 | inconclusive [inhibitor, full curve, poor fit] | – |
| Cc1[nH]c2ccc(F)cc2c1CCN(Cc1cccnc1)C(=S)Nc1ccc(F)cc1 | inconclusive [inhibitor, partial curve] | – |
| O=C1C2C3c4ccccc4C(c4ccccc43)C2c2nc3ccccc3n21 (stereo not drawn) | inconclusive [inhibitor, partial curve] | – |
| CCOc1ccc(NC(=O)Nc2cccc(C(=O)O)c2)cc1 | inactive | – |

| Structure (SMILES) | Potency | activity change, negative = inhibition |
| --- | --- | --- |
| CCN(CC)S(=O)(=O)c1ccc(N2CCOCC2)c(NS(=O)(=O)c2cc(C(C)(C)C)ccc2C)c1 | inconclusive [inhibitor, single point] | – |
| CC(C)C[C@H](NC(=O)N1CC(=O)Nc2ccccc21)C(=O)N[C@H](Cc1ccccc1)C(=O)O | inconclusive [inhibitor, single point] | – |
| Cc1cc(C(=O)N/N=C/c2ccc(N(C)C)cc2)c2ccccc2n1 | inactive | – |
| CSc1ccccc1NC(=O)CN1CCCCC1 | inconclusive [inhibitor, partial curve, poor fit] | – |
| CCn1c2ccccc2c2cc(NC(=O)C(=O)N3CCOCC3)ccc21 | active: 11.2 µM | – |
| COc1ccc(C2=Nn3c(nnc3-c3ccncc3)SC2)cc1OC | inconclusive [inhibitor, single point] | – |
| CCCCc1c(O)c2ccccc2n(CCCC)c1=O | inactive | – |
| Cc1ccc(Nc2c3c(nc4ncnn24)CC(C)CC3)cc1 (stereo not drawn) | inconclusive [inhibitor, single point] | – |
| Cc1nc(Nc2ccc3c(c2)OCCO3)c2oc3ccccc3c2n1 | inconclusive [inhibitor, single point] | – |
| COc1ccc(CCNC(=O)COc2ccc3c(C)cc(=O)oc3c2)cc1OC | inactive | – |
| COc1ccc(-c2ccnc(SCC(=O)Nc3ccccn3)n2)cc1 | inconclusive [inhibitor, single point] | – |
| CN(C)c1ccc(C(=O)Nc2nnc(C3=COCCO3)o2)cc1 | inactive | – |
| CN1CCC(N(C)S(=O)(=O)c2ccc(NC(=O)COc3cccc(C(F)(F)F)c3)cc2)CC1 | inconclusive [inhibitor, partial curve, poor fit] | – |
| CCOC(=O)c1c(C)n(C)c2cc(-c3ccc(C)cc3)c(O)cc12 | inconclusive [inhibitor, full curve, poor fit] | – |
| Cc1ccc(C(=O)Nc2cccc(C(O)c3ccccc3)c2)cc1 (stereo not drawn) | inconclusive [inhibitor, partial curve] | – |
| Cn1cnc2c1c(=O)n(Cc1ccc(F)cc1Cl)c(=O)n2C | inactive | – |
| COc1ccc(CCN(C)C2CCCN(S(=O)(=O)N(C)C)C2)cc1OC (stereo not drawn) | inactive | – |
| COc1ccc(-c2c[n+]3c(n2-c2ccccc2)SCC3)cc1 | inconclusive [inhibitor, partial curve] | – |
| COc1ccc(CCNC(=O)c2ccc(CN3CCC(Cc4ccccc4)CC3)cc2)cc1 | inconclusive [inhibitor, single point] | – |
| CCCOc1ccc(N2C(=O)C3C4C=CC(CC4)C3C2=O)cc1 (stereo not drawn) | inactive | – |
| Cc1ccc(CN2CCN(Cc3nc(C(C)C)cs3)CC2CCO)cc1 (stereo not drawn) | inconclusive [inhibitor, single point] | – |
| Cc1ccc2oc(-c3ccc(NC(=O)c4cccnc4)cc3)nc2c1 | inconclusive [inhibitor, partial curve] | – |
| COc1ccc2[nH]c(=O)c(C(c3nnnn3C3CCCC3)N3CCN(Cc4ccc5c(c4)OCO5)CC3)cc2c1 (stereo not drawn) | inconclusive [inhibitor, partial curve] | – |

| Structure (SMILES) | Potency | activity change, negative = inhibition |
| --- | --- | --- |
| CCOC(=O)c1sc(NC(=S)NC(=O)c2ccc(OC)cc2)nc1C | inconclusive [inhibitor, partial curve] | – |
| CCOc1ccc(-c2nnn(CC(=O)N3CCN(c4ccc(F)cc4)CC3)n2)cc1OCC | inconclusive [inhibitor, partial curve] | – |
| CCc1ccc(C(=O)NNC(=O)C2CC(=O)N(Cc3ccccc3)C2)cc1 (stereo not drawn) | – | inconclusive: -57.2% [inhibitor] |
| Cc1ccc(NC(=O)CSc2ncnc3ccccc23)cc1S(=O)(=O)N1CCOCC1 | inconclusive [inhibitor, partial curve] | – |
| Cc1cc2cc3c(cc2nc1SCC(=O)Nc1c(C)cccc1C)CCC3 | inconclusive [inhibitor, partial curve] | – |
| O=C(c1cccs1)N(Cc1ccco1)c1nc(-c2ccc(F)cc2)cs1 | inconclusive [inhibitor, partial curve, poor fit] | – |
| COc1ccc(NC(=O)CSCc2ccc(C)cc2)cc1 | inactive | – |
| COc1ccc(NC(=O)[C@H](COCc2ccccc2)NC(=O)OC(C)(C)C)cc1 | inactive | – |
| CCOC(=O)c1csc(NC(=O)c2ccc(OC)c(OC)c2)n1 | inconclusive [inhibitor, full curve, poor fit] | – |
| O=S(=O)(c1ccc(F)c(F)c1)N1CCN(CCc2ccccc2)CC1 | inconclusive [inhibitor, single point] | – |
| CCN(CC)c1ccc(C2Nc3cccc4cccc(c34)N2)cc1 | inactive | – |
| Cn1c2ccccc2c(=O)c2cc(C#Cc3ccc(N)cc3)ccc21 | inconclusive [inhibitor, single point] | – |
| O=c1cc(-c2ccc(O)cc2)oc2ccc3ccccc3c12 | active: 12.6 µM | – |
| Cc1cc(C(=O)CCl)c(C)n1-c1cccc([N+](=O)[O-])c1 | inconclusive [inhibitor, single point] | – |
| COc1ccc([C@@H]2[C@@H]3C(=O)N(C(C)(C)C)C(=O)[C@@H]3[C@]3(Cc4ccccc4)C(=O)N(c4cccc(Cl)c4)C(=O)N23)cc1 | inactive | – |
| O=C(NCCc1ccc(Cl)cc1)C1CCN(C(=O)N2CCOc3ccccc32)CC1 | inconclusive [inhibitor, partial curve] | – |
| Cc1c(C)c2ccc(OC(C)C(=O)N3CC[C@@]4(O)CCCC[C@H]4C3)c(C)c2oc1=O (stereo partly drawn) | inactive | – |
| Cc1ccc(C(=O)COC(=O)c2cccs2)cc1 | inactive | – |
| O=S(=O)(NCc1ccccc1)c1ccccc1NCCc1ccccc1 | inconclusive [inhibitor, single point] | – |
| COc1ccc(C2(CNC(=O)c3cccc([N+](=O)[O-])c3)CCOCC2)cc1 | inactive | – |
| CSc1cccc(N2CC(C(=O)N3CCN(S(=O)(=O)c4ccccc4Cl)CC3)CC2=O)c1 (stereo not drawn) | inconclusive [inhibitor, single point] | – |
| Cc1cccc(OCCCCc2c(C)n[nH]c2C)c1C | inconclusive [inhibitor, single point] | – |
